# Measurements as given in PubChem BioAssay AID1468 (National Center for Advancing Translational Sciences (NCATS), 2008).
# In all, about 280,000 compounds went through this assay and about 1,100 (0.39%) were called active. This list was built around the results that the source calls inconclusive (neither active nor inactive); the mix of calls is not that of the screen. Calls come from the whole dose curve; as a rule, active = well fitted inhibition curve with a large enough effect; inconclusive = small, poorly fitted or top-dose-only effect, or effect the other way; inactive = flat fitted curve, though single readings scatter. Potencies of inconclusive entries are left out as doubtful fits.
# Target: Microtubule-associated protein tau (Homo sapiens) (UniProt P10636)
# Assay: qHTS for Inhibitors of Tau Fibril Formation, Fluorescence Polarization; note: nearly all actives have a fitted effect of over 55% in size
# Details: K18 P301L tau heparin fibrillization, Alexa594 FP, 6 h; series mostly up to 57.7 µM; activity, negative = inhibition: at the top concentration
# Description: NIH Molecular Libraries Probe Production Network [MLPCN]
# NIH Chemical Genomics Center [NCGC]
# Assay Provider: Carlo Ballatore, University of Pennsylvania
# The microtubule-associated protein tau is an abundant protein in the axons of neurons that stabilizes microtubules. With its ability to modulate microtubule dynamics, tau contributes directly or indirectly, to key structural and regulatory cellular functions. Particularly important is the influence tau exerts on axonal transport, which allows signaling molecules, trophic factors and other essential cellular constituents to travel along the axons. Under pathological conditions, tau becomes sequestered into insoluble aggregates called neurofibrillary tangles. This phenomenon is believed to have pathological consequences by promoting axonal transport deficits that ultimately lead to synaptic dysfunction and neuronal loss. To identify inhibitors of tau aggregation, a heparin-induced tau fibril formation assay was used that employed a recombinantly expressed fragment of tau, K18 (Q242-E372), bearing a P301L mutation (Gustke et al. 1994; Hong et al. 1998).
# Gustke, N., B. Trinczek, et al. (1994). "Domains of tau protein and interactions with microtubules." Biochemistry 33(32): 9511-22.
# Hong, M., V. Zhukareva, et al. (1998).
# Li, W. and V. M. Lee (2006). "Characterization of two VQIXXK motifs for tau fibrillization in vitro." Biochemistry 45(51): 15692-701.
# von Bergen, M., S. Barghorn, et al. (2001). "Mutations of tau protein in frontotemporal dementia promote aggregation of paired helical filaments by enhancing local beta-structure." J Biol Chem 276(51): 48165-74.
# NCGC Assay Protocol Summary:
# For screening, 2 uL/well human K18 P301L (15 uM unlabeled and 0.24 uM Alexa 594-labeled tau final concentrations) in reagent buffer (100 mM sodium acetate pH 7) was dispensed into black solid 1536-well plates (Grenier) using a solenoid-based dispenser. Following transfer of 23 nL compound or DMSO vehicle by a pin tool, 2 uL/well heparin (20 uM final concentration) in reagent buffer was added and the plate centrifuged 15 s at 1000 RPM. Plates were incubated 6 hr at 37 C and then 1 uL/well ThT (30 uM final concentration) was added. After a 1 hr ambient incubation, the plates were read by an Envision (Perkin Elmer) to monitor Alexa 594 FP (555 nm excitation and 632 nm emission).
# Keywords: NIH Roadmap, MLPCN, MLI, MLSMR, NCGC, qHTS, tau, tauopathies, Alzheimer's disease, fibril, neurodegeneration, aggregation
# % is set by controls: 0 for no effect and ±100 for the full control effect; potency is the fitted concentration of half-maximal effect; tags give direction and shape of the fitted curve.
# UniProt P10636, sequence (P10636 whole entry, looked up): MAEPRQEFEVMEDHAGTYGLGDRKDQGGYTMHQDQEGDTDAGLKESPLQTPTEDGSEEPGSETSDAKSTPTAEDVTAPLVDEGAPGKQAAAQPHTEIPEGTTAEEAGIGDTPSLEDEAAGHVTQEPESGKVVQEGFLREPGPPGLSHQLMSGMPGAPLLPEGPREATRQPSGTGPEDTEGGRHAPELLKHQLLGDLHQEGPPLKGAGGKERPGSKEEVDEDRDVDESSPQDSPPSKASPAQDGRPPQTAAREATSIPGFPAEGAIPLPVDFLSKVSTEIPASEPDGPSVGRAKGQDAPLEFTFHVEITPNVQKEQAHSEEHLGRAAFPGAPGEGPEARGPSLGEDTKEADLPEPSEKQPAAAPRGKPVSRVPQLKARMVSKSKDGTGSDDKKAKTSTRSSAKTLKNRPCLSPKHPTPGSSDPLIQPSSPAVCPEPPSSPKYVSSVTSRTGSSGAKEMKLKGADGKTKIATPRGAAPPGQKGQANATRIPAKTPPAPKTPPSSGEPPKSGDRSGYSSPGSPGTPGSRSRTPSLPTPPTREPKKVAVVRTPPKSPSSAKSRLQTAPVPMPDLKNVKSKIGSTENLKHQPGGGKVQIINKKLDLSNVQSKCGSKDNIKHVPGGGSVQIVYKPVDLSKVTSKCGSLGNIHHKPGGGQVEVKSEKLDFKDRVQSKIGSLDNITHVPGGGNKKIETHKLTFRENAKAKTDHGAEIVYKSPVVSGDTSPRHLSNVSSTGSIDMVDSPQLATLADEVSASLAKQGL
Compound,Potency,"activity, negative = inhibition"
CCN(CC)C(=O)CSc1nc2c(sc(=S)n2-c2ccccc2)c(=O)n1Cc1ccco1,"inconclusive [inhibitor, partial curve]",
O=C(Nc1cccc(Cl)c1)c1ccc2nc(CCc3ccccc3)oc2c1,"inconclusive [inhibitor, full curve]",
CCOC(=O)CSc1nc(C2CC2)nc2ccccc12,,inactive: -3%
Cc1ccc(C(=O)CSc2nnc(COc3ccc(C#N)cc3)n2-c2ccccc2)cc1,"inconclusive [inhibitor, single point]",
Cc1nn(CC(=O)OCC(=O)NC(C)c2ccccc2)c(C)c1[N+](=O)[O-] (centres undefined),,inactive: -3.04%
CCc1ccc2nc(Nc3ccc(OC)cc3OC)c(C#N)cc2c1,"inconclusive [activator, single point]",
Cc1nc(-c2ccccc2)sc1-c1ccc(SCC(=O)Nc2cccc(C(F)(F)F)c2)nn1,"inconclusive [inhibitor, partial curve]",
CCC(=O)N1CCc2cc(Br)cc(S(=O)(=O)N3CCC(C(=O)Nc4ccccc4CC)CC3)c21,,inactive: -0.448%
CS(=O)(=O)Nc1cccc(-c2ccc3ncnc(NCc4cccnc4)c3c2)c1,"inconclusive [inhibitor, single point]",
C=CS(=O)(=O)c1ccc(Oc2ccc(S(=O)(=O)C=C)cc2)cc1,"inconclusive [inhibitor, partial curve]",
CCC[n+]1c(C)sc2c(OC)ccc(OC)c21,active: 31.6 µM,
COn1c2c(c3c4nonc4ccc31)CCCC2,"inconclusive [inhibitor, partial curve]",
CCC(=O)Nc1c2c(nn1-c1ccccc1C)CSC2,,inactive: -13.3%
CCc1nnc(-n2nc(C)cc2-c2ccccc2)n1N,,inactive: -3.24%
N#C/C(=C/c1ccc(Sc2nc3ccccc3[nH]2)o1)c1cccc(Br)c1,"inconclusive [inhibitor, single point]",
COc1ccccc1Nc1sc(C(=O)c2ccc3c(c2)OCO3)c(N)c1S(=O)(=O)c1ccccc1,"inconclusive [inhibitor, single point]",
Cc1ccc(C2=Nc3ccccc3N(CC(=O)Nc3ccccc3F)C(=O)C2)cc1C,,inactive: -13.1%
CCCn1c(C)cc(C(=O)CN2C(=O)c3cccc(N)c3C2=O)c1C,"inconclusive [inhibitor, partial curve]",
CC(=O)Oc1oc(-c2ccccc2)nc1C=Nc1ccccc1,"inconclusive [inhibitor, partial curve, poor fit]",
COc1ccc(-c2noc(C3CCCN(S(=O)(=O)c4cccc(Cl)c4)C3)n2)cc1OC (centres undefined),"inconclusive [inhibitor, full curve]",
O=C1NC(=S)N/C1=C\c1cccc([N+](=O)[O-])c1,,inactive: 6.34%
CC(C)Cn1cc(NC(=O)Nc2cccc(C(F)(F)F)c2)c2ccccc2c1=O,"inconclusive [activator, single point]",

Compound,Potency,"activity, negative = inhibition"
COc1cc2cc3c4c(cc(OC)c(OC)c4c2cc1OC)CCN3C,"inconclusive [inhibitor, single point]",
Oc1ccc(Br)cc1-c1cc(-c2ccc(Cl)cc2)n[nH]1,"inconclusive [inhibitor, partial curve]",
Oc1c(C=C2N=c3ccccc3=N2)sc(=S)n1-c1ccc(F)cc1,inactive,
O=C(Nc1ccc(Oc2ccc(NC(=O)Nc3ccc([N+](=O)[O-])cc3)cc2)cc1)Nc1ccc([N+](=O)[O-])cc1,active: 25.1 µM,
CCCCOC(=O)c1ccc(NC(=O)c2c(OC)cccc2OC)cc1,,inactive: -4.48%
CCOC(=O)c1c(C)sc(-c2c(-c3ccc4c(c3)OCCO4)[nH]c3c2c(=O)n(C)c(=O)n3C)c1O,"inconclusive [activator, partial curve]",
Cc1ccc(NC(=O)C2CC(=O)N(Cc3ccco3)C2)cc1 (centres undefined),"inconclusive [inhibitor, partial curve]",
Cc1nn(-c2ccccc2)c(N)c1N=Nc1ccccc1,,inactive: 2.11%
Cc1ccc(N=Nc2c(N)[nH]n3c(=O)cc(C)nc23)cc1,"inconclusive [activator, single point]",
Cc1cc2n(c1)CCn1c(C)ccc1-2,"inconclusive [inhibitor, single point]",
COc1ccc(-n2nc3c(N4CCCC(C(=O)NCc5ccc(C)cc5)C4)nnc(C)c3c2C)cc1 (centres undefined),,inactive: -15.9%
Cc1ccc(CCNC(c2ccc(F)cc2)c2nnc(-c3ccccc3Cl)o2)cc1 (centres undefined),,inactive: 0.703%
CN(Cc1c(F)cccc1Cl)c1nnnn1-c1ccccc1,"inconclusive [inhibitor, single point]",
CCc1ccc(/C=N/Nc2ncnc3nc[nH]c23)cc1,"inconclusive [activator, single point]",
CCn1c(SCC(=O)N/N=C/C=C/c2ccco2)nc2ccccc21,"inconclusive [inhibitor, single point]",
CCc1ccccc1Nc1nn2c(=O)c3ccc(C(=O)NC(C)c4ccccc4)cc3nc2s1 (centres undefined),"inconclusive [inhibitor, single point]",
CCc1ccc(NC(=O)CC2C(=O)N(c3ccc(Cl)cc3)C(=O)N2Cc2ccco2)cc1 (centres undefined),"inconclusive [inhibitor, partial curve, poor fit]",
COc1cc(-c2nc(-c3ccccc3)c(-c3cccs3)[nH]2)cc(OC)c1OC,"inconclusive [activator, full curve]",
COc1ccc(C(=O)Oc2cccc(Nc3ncnc4ccccc34)c2)cc1OC,"inconclusive [inhibitor, single point]",
COc1cc(/C=N/NC(=S)Nc2cccc(S(=O)(=O)N(C)C)c2)cc(OC)c1O,"inconclusive [activator, partial curve]",
CC(=O)Nc1ccc(NC(=O)c2cc3sccc3n2Cc2ccc(F)cc2)cc1,"inconclusive [inhibitor, partial curve, poor fit]",
O=C(NCCCO)c1ccc2nc(-c3ccco3)c(-c3ccco3)nc2c1,active: 8.91 µM,
